Reference: paper PMC4336329 (PLoS ONE, 2015)
The whole screen tested about 310,000 compounds, of which about 14,000 (4.5%) showed an effect of 50% or more. The effect is printed as a negative number. The list shows a part of the results.

target: human ether-à-go-go-related gene (hERG) potassium channel (human, UniProt Q12809); assay: primary screen, population patch clamp on CHO cells stably expressing hERG
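Also: peak tail current of the secondary pulse compared with the same well before compound.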

Chain of human ether-à-go-go-related gene (hERG) potassium channel (Q12809 whole entry, looked up): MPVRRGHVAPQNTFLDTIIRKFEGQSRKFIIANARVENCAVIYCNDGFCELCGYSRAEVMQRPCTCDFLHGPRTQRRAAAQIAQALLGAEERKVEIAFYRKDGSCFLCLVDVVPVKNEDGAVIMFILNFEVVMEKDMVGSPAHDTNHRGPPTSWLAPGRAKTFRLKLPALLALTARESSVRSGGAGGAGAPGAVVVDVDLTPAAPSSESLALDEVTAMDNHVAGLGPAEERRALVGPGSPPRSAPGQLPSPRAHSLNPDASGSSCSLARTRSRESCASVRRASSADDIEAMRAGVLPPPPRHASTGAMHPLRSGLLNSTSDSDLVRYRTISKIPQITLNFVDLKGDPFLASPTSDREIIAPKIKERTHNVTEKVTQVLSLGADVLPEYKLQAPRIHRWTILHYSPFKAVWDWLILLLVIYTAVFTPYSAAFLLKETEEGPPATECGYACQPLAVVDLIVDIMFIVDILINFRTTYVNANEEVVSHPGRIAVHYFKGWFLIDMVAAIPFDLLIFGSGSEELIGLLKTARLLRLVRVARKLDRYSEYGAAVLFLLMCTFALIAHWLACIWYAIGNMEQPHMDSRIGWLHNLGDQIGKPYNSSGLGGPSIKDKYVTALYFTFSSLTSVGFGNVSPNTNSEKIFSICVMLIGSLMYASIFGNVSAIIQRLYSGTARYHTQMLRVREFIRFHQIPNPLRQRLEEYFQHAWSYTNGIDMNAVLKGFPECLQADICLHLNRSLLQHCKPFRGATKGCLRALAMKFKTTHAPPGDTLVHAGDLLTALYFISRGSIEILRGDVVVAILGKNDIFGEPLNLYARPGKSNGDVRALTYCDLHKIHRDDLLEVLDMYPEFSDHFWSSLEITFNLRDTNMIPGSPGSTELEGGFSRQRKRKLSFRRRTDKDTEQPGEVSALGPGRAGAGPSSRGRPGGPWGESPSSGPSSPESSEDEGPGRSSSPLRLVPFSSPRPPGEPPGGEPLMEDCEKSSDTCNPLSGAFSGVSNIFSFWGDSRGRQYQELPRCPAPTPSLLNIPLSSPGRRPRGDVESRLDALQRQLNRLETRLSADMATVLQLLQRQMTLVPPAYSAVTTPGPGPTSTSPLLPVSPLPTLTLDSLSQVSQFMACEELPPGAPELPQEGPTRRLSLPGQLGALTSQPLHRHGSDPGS

SMILES | hERG current change (%, negative = inhibition) at 10uM [%]
Cc1ccc(S(=O)(=O)NCCNC(=O)C2CCCNC2=O)cc1 (stereo not drawn) | 5.93
CCOc1ccc(CCNC(=O)Cn2ncn3nc(-c4ccc(OC)cc4)cc3c2=O)cc1 | -9.95
CC(C)(C)c1ccc(OCC(O)CSc2ncn[nH]2)cc1 (stereo not drawn) | 3.45
OCCCNc1nnc(-c2ccccc2)c2ccccc12 | 2.95
CC(C)(C)OC(=O)N1CCC(C(=O)NCC2CCCO2)CC1 (stereo not drawn) | 16.5
CCS(=O)(=O)N1CCC(c2nc(-c3ccc(C)cc3)no2)CC1 | -11.2
C=CCNC(=O)C(=O)NCC1CCCN1S(=O)(=O)c1cccs1 (stereo not drawn) | -1.92
CNc1csc(C)c(C)c1=O | 21.7
O=C1CN(C(=O)c2ccc(Br)o2)C(c2ccccc2)c2cc(Br)ccc2N1 (stereo not drawn) | -23.6
CCc1ccc(-n2c(Cc3ccccc3)n[nH]c2=S)cc1 | 27.3
Cc1ccc(NC(=S)Nc2cccc3ccccc23)cc1F | -1.2
CCn1c(=O)c2c(n3cnnc13)-c1ccccc1CC21CCCCC1 | 16.2
COC(=O)C1=C(c2ccc(OC(F)(F)F)cc2)C[C@@H]2CC[C@H]1N2C(=O)NCCOc1ccccc1Cl | 3.24
Cl.OCCN1CCN(c2nc(NCc3ccco3)c3ccccc3n2)CC1 | -75.3
Cc1ccc(C)c(NC(=S)N(CCN(C)C)C(C)c2ccccn2)c1 (stereo not drawn) | -23.5
COc1ccc(-c2cc(C(=O)NCC3CCCO3)c3ccccc3n2)c(OC)c1 (stereo not drawn) | -0.667
Cc1cccc(NC(=O)C2C(c3ccccc3)C2(Cl)Cl)c1 (stereo not drawn) | -5.35
CC12CCC(C(=O)N(c3cccc(Cl)c3)C1=O)C2(C)C (stereo not drawn) | -4.23
Cn1c(=O)c(=O)n(C)c2cc(S(=O)(=O)N3CCOc4ccccc43)ccc21 | -12.6

SMILES | hERG current change (%, negative = inhibition) at 10uM [%]
Cc1c(C(=O)Nc2ccc(N3CCOCC3)cc2)oc2ccccc12 | 4.53
Cc1ccc(/C=N/Nc2nc(C)cc(C)n2)cc1 | -4.25
COc1cccc(N(CC(=O)NC2CCCCCC2)S(=O)(=O)c2ccccc2)c1 | 14.6
CCOc1cc(C(F)(F)F)cnc1/C(N)=N/O | 16.8
O=C(CSc1ccc2nnc(-c3cccc(F)c3)n2n1)NCc1ccco1 | -65.5
CCN(CC)CC(C)(C)NS(=O)(=O)c1ccc(Cl)cc1 | -0.261
CCc1c(C2(O)CCCCC2)[nH]c2ncccc12 | -4.04
COc1ccc(N(Cc2cc3ccc(C)cc3[nH]c2=O)C(=O)C2CCCO2)cc1 (stereo not drawn) | 4.69
CCCCCC[n+]1c(-c2ccccc2)csc1Nc1ccccc1.[Br-] | -5.77
COc1cc(OC)cc(C(=O)N2CCN(C(=O)c3ccc(OC)c(OC)c3)CC2)c1 | -14
COc1ccc(OC(C)C(=O)N(C)Cc2nc(-c3ccc(OC)cc3)no2)cc1 (stereo not drawn) | -37.7
CCOC(=O)CCc1c(C)n(CC)c2ncnn2c1=O | 9.93
COc1ccc(NC(=O)c2cccc3ccccc23)cc1 | -4.94
COc1ccc(CC(=O)Nc2ccc(S(=O)(=O)Nc3nccs3)cc2)cc1 | 8.73
CC1C2CC(C/C2=N/NC(=O)c2cccs2)C1(C)C (stereo not drawn) | -4.4
CC(C)NC(=O)c1n[nH]c(=O)c2ccccc12 | 2.4
CCOc1ccc(NC(=O)C2CCCN2S(=O)(=O)c2ccc(OCC)cc2)cc1 (stereo not drawn) | -14.3
Cc1cc(/C=C2\SC(=O)NC2=O)c(C)n1-c1ccc(N(C)C)cc1 | -4.47
O=c1c(-c2ccnn2-c2ccccc2F)cnc2n1CCS2 | -2.56

SMILES | hERG current change (%, negative = inhibition) at 10uM [%]
O=C(CN1C(=O)NC2(CCCC2)C1=O)NCCC1=CCCCC1 | 9.47
O=S1(=O)CCO[C@H]2Cc3ccccc3[C@H]2N1Cc1ccc(Cl)cc1 | 1.62
O=C(Nc1cc(S(=O)(=O)N2CCCCCC2)ccc1OCC(F)(F)F)c1cnccn1 | 7.43
O=c1cc(O)nc(-c2ccccc2)s1 | 22.3
CCCC(=O)Nc1ccc(N2CCN(S(C)(=O)=O)CC2)cc1 | 1.49
COc1cc(C(=O)NCCOC(=O)c2cccc(N(C)C)c2)cc(OC)c1OC | 8.97
CCCCn1c(N)c(S(=O)(=O)c2ccc(C)cc2)c2nc3ccccc3nc21 | -0.298
CCOC(=O)CSc1nc(=O)n2cc(C)ccc2n1 | 8.24
c1ccc2c3c(ccc2c1)OCC1CONC31 (stereo not drawn) | 22
COc1ccc(C(=O)N/C(=C\c2cn(C)c3ccccc23)C(=O)N2CCN(C)CC2)cc1OC | -3.26
Cc1nn(CC(=O)Nc2ccc(Cl)cn2)c(C)c1Br | -2.04
COc1cc(Cl)ccc1OCc1cc(C(=O)N2CCCCCC2)no1 | 4.67
COC(=O)c1ccccc1NC(=O)C1CCC(=O)N1S(=O)(=O)c1ccc(C)cc1 (stereo not drawn) | -6.52
COc1ccccc1NC(=O)CSc1nc2ccccc2n1C(C)=O | -14
COc1ccc(C(=O)Nc2nc(-c3ccc(S(=O)(=O)N4CCOCC4)cc3)cs2)cc1 | -6.46
Cc1ccc2sc(N(CCN(C)C)C(=O)c3ccc(S(=O)(=O)N4CC(C)OC(C)C4)cc3)nc2c1C.Cl (stereo not drawn) | 1.87
O=C(CCc1nnc(-c2ccc(-c3ccccc3)cc2)o1)NCCc1ccccn1 | -25.7
CCOc1ccc(-c2nc(S(=O)(=O)c3ccccc3)c(NC)o2)cc1 | 13.2
O=C(CSc1nc(=O)n(CCN2CCOCC2)c2c1CCCC2)Nc1ccc([N+](=O)[O-])cc1 | -67.6
